# Experimental data published in the supplement of paper PMC11417369.
# ± gives the standard deviation of the averaged measurements. This is one part of the list.
# Tested on: PfAP2-EXP AP2 domain (GST-tagged)
# Assay: gcPBM binding intensity (ln(normalized median fluorescence intensity)); higher = stronger DNA binding
# How it was run: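 Binding of GST-tagged P. falciparum DNA-binding domains, expressed in E. coli and used at about 25 μg on average, was carried out for 1 h in 1× PBS containing 1% milk, 0.2 mg/ml BSA, 0.5% salmon testes DNA and 0.03% Triton X-100. The target was an Agilent 4 × 180k array of primer-extended double-stranded 36-bp intergenic genomic probes plus negative controls, read with Alexa488 anti-GST antibody at 488 nm. Binding intensity is the highest Masliner-normalised natural-log median intensity across replicate spots of either probe orientation.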
row,Sequence,gcPBM binding intensity (ln)
1,ATATATTTTGATTGCACACAGAATTTAAATCATGAT [CACACA_site2343],8.56 ± 0.3
2,TACTTTTTTATTTGGTGTACAAATAAAATCATAATG [XGTACX_site1802],8.655 ± 0.049
3,AAAATAAAAAAAATAAATAAAAAAAATAATAATAAA [CACACA_negctrl_site563],8.28 ± 0.49
4,TCATAAATATAAAGTGTGCACTTGAATAATATGTAT,8.83 ± 0.057
5,TAAATAAATCTGTGCTTGCACTTTTTTTGTTATTTT,8.27 ± 0.28
6,ATATAAACATATAATAGTACACTTCGATAATTTTAT [XGTACX_site3321],8.38 ± 0.29
7,GTACCATCAAAATAAATATATATATATATATATTTT [GTGCAC_negctrl_site646],8.44 ± 0.33
8,ATTTAACATATAAAATGTACATATATATATATATTT [XGTACX_site2525],8.45 ± 0.25
9,GAGCCCAAAAAATTAGGTACGTATAAAGAGGTATTT [XGTACX_site5348],8.58 ± 0.49
10,TTTCTTTTTTCTTCAGTGCATTAAAATTAACAAAAG,8.86 ± 0.18
11,TTTGTGTTGTATTTTTGTACATAAAATAAACTTAAA [XGTACX_site4637],8.51 ± 0.38
12,TCTTTTTTCATATTTTCACACATGTCTTTATATTTA [CACACA_site6025],9.14 ± 0.37
13,CATATATATATTGGAAGTACATATTTAATATTCATT [XGTACX_site3545],8.63 ± 0.23
14,AGGAAAATTTTATTTGCACACATTATTACGTCTAAA [CACACA_site2337],8.44 ± 0.24
15,ACATGTAATATAATGTGTACATATACAAAGGTATAT [XGTACX_site4145],8.57 ± 0.28
16,ATAAAGTATATTATATGTACATATATATATTATATA [XGTACX_site1345],8.3 ± 0.28
17,AGATGAGAAATATATACACACAATAATACCTATTTA [CACACA_site876],8.27 ± 0.21
18,TGGGTATATATAAAAGGTACACAAAATGAAGATATA [XGTACX_site4994],8.98 ± 0.52
19,TTTTCTGTGTTTTTGGGTACACACAAATAGCTTGTA [XGTACX_site8553],8.86 ± 0.27
20,TAATTTCTTATGTATTGTACAAATAATATATTATAT [XGTACX_site1037],8.64 ± 0.33
21,CAATTTTACTCATAAACACACATATATATGTTATTA [CACACA_site3152],8.44 ± 0.39
22,ATATGTGTTAAAAATGCACACAAAAAAATATACATA [CACACA_site7988],8.69 ± 0.49

row,Sequence,gcPBM binding intensity (ln)
1,AAAAAAAGGATGTACGTATCATAATTTTATTTTATA [CACACA_negctrl_site1543],8.24 ± 0.33
2,TTTTACAAATGTTTTACACACACATAATTGTATCAA [CACACA_site4166],8.43 ± 0.34
3,CTTATTTTATTCGAATGTACATAATTGTTAGACATT [XGTACX_site8583],8.66 ± 0.39
4,TGATATTATATTGTGATGCACTTTAAAAATATAAAG [GTGCAC_site9509],8.46 ± 0.11
5,ATGGTTTAATTATATACACACTCGAAAATAACGACA [CACACA_site3258],8.52 ± 0.5
6,TATCTCATGCGCACAAAAATATATGCAAAGAGTATA [TGCATGCA_negctrl_site201],8.64 ± 0.17
7,CTTAAGTAAAATTAAAGTACATGGACAAAAAATATA [XGTACX_site7900],8.87 ± 0.28
8,AATAATAACAAATGAACACACATATAGATGAGCAAA [CACACA_site7076],8.8 ± 0.49
9,ATAAATTAATGGAGAAATCTTATGAATTTATTTTAA [CACACA_negctrl_site1068],7.97 ± 0.58
10,AAATAAAATATTACATGTACATGTTCATAAAAAAAA [XGTACX_site1067],8.67 ± 0.38
11,TATTGTAGTCATGCACGTACAAAAGGAAAGTTAAAA [XGTACX_site4446],9.12 ± 0.11
12,TAAATATAAGTGTACATACACACTTTACAATCTCAT [CACACA_site3006],8.43 ± 0.25
13,AATATATACATATATACACACACATATATTATATAT [CACACA_site7980],8.51 ± 0.43
14,TACATACACAGACACACACACATATATATATATATA [CACACA_site3557],10.2 ± 0.2
15,AATAAAAAGGAACACACACACACACCGATATATATA [CACACA_site5895],8.86 ± 0.57
16,AAAGAAGAAAAATATAGTACAGGGCACATGTCCTGT [XGTACX_site6293],8.45 ± 0.35
17,AAAAAAAAAAAAATTGCATGTAAATGAAATAATAAA [TGCATGCA_site116],8.89 ± 0.2
18,ATTTAAATTTAAAAAACACACATAATATGATATATA [CACACA_site1973],8.57 ± 0.47
19,TTATTTTTATATTTCACACACATATACTTTTACATA [CACACA_site4097],8.8 ± 0.47
20,TGTTTCTAAAAATTTACACACAAAATATTTCTACAT [CACACA_site4098],8.51 ± 0.42
21,CCTATAAAACCATATACACACATATATATAAAAAAA [CACACA_site4013],8.63 ± 0.55
22,TTATACGATAATATGACACACAATACAAAAATGTAA [CACACA_site1918],8.48 ± 0.37
